From the supplement of paper PMC4604168 (melanoma cell lines)
This is one part of the list. Repeats are few or missing, and single values can be far off.

Legend:
Assay in all cases: cell count relative to DMSO control; melanoma cells; higher = more viable cells
Conditions in all cases: library dose: standard library concentration; 72 h
[1] = system: G361
[2] = system: IPC-298
[3] = system: IST-MEL1
[4] = system: LB2518-MEL
[5] = system: LOXIMVI
[6] = system: MEL-HO
[7] = system: MZ2-MEL
[8] = system: MeWo
[9] = system: RPMI7951
[10] = system: RVH-421
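Also: cells treated in 1,536-well plates, then fixed and DAPI-stained, with nuclei counted from automated high-throughput microscope images.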

| SMILES | cell count [1] | cell count [2] | cell count [3] | cell count [4] | cell count [5] | cell count [6] | cell count [7] | cell count [8] | cell count [9] | cell count [10] |
| --- | --- | --- | --- | --- | --- | --- | --- | --- | --- | --- |
| O=C(/C=C/c1cccnc1)NCCCCC1CCN(C(=O)c2ccccc2)CC1 + COc1cc(N2CCC(N3CCN(C)CC3)CC2)ccc1Nc1ncc(Cl)c(Nc2ccccc2S(=O)(=O)C(C)C)n1 [NVP-TAE684] (first compound 0.05 µM, partner dose 0.4 µM) | 3.09% | 30.6% | 65.7% | 51.3% | 79.4% | 30.4% | 33.4% | 72.8% | 110% | 16.5% |
| Cc1ccc(Nc2nccc(N(C)c3ccc4c(C)n(C)nc4c3)n2)cc1S(N)(=O)=O [Pazopanib] + Clc1ccc(Nc2nnc(Cc3ccncc3)c3ccccc23)cc1 [vatalanib] (first compound 2 µM, partner dose 10 µM) | 65.8% | 52% | 79.9% | 69.4% | 69.5% | 62.3% | 55.5% | 65.8% | 67.2% | 60.2% |
| O=C(/C=C/c1cccnc1)NCCCCC1CCN(C(=O)c2ccccc2)CC1 + NC(=O)Nc1cc(-c2cccc(F)c2)sc1C(=O)N[C@H]1CCCNC1 [AZD7762] (first compound 0.05 µM, partner dose 0.1 µM) | 3.47% | 22.2% | 59.4% | 32.9% | 56% | 33.6% | 20.5% | 75.6% | 36.3% | 12% |
| Cc1ccc(Nc2nccc(N(C)c3ccc4c(C)n(C)nc4c3)n2)cc1S(N)(=O)=O [Pazopanib] + C[C@]1(c2nc3c(C(N)=O)cccc3[nH]2)CCCN1 [Veliparib] (first compound 2 µM, partner dose 7 µM) | 68.7% | 69.2% | 90.3% | 59.3% | 69.4% | 80.9% | 57.9% | 69.5% | 64.8% | 72.3% |
| CC1(C)CCC(c2ccc(Cl)cc2)=C(CN2CCN(c3ccc(C(=O)NS(=O)(=O)c4ccc(N[C@H](CCN5CCOCC5)CSc5ccccc5)c(S(=O)(=O)C(F)(F)F)c4)cc3)CC2)C1 + O=C1NC(=O)/C(=C/c2ccc(-c3ccc(F)cc3O)o2)S1 [AS252424] (first compound 2 µM, partner dose 5 µM) | 62.4% | 86.4% | 74.3% | 78.7% | 31.6% | 46.3% | 82.1% | 76.6% | 49.6% | 56.9% |
| O=C(/C=C/c1cccnc1)NCCCCC1CCN(C(=O)c2ccccc2)CC1 + CS(=O)(=O)CCNCc1ccc(-c2ccc3ncnc(Nc4ccc(OCc5cccc(F)c5)c(Cl)c4)c3c2)o1 [lapatinib] (first compound 0.05 µM, partner dose 4 µM) | 3.9% | 21.9% | 66.8% | 46.7% | 81.2% | 38% | 11.3% | 66.6% | 43.4% | 40% |
| O=C(/C=C/c1cccnc1)NCCCCC1CCN(C(=O)c2ccccc2)CC1 + Nc1ccn([C@@H]2O[C@H](CO)[C@@H](O)C2(F)F)c(=O)n1 [gemcitabine] (first compound 0.05 µM, partner dose 0.002 µM) | 4.45% | 24.6% | 33.9% | 59.5% | 78.1% | 30.5% | 28.1% | 61.9% | 49.2% | 65.6% |
| CC1(C)CCC(c2ccc(Cl)cc2)=C(CN2CCN(c3ccc(C(=O)NS(=O)(=O)c4ccc(N[C@H](CCN5CCOCC5)CSc5ccccc5)c(S(=O)(=O)C(F)(F)F)c4)cc3)CC2)C1 + CO[C@@H]1[C@H](N(C)C(=O)c2ccccc2)C[C@H]2O[C@]1(C)n1c3ccccc3c3c4c(c5c6ccccc6n2c5c31)C(=O)NC4 [Midostaurin] (first compound 2 µM, partner dose 0.4 µM) | 15% | 50.8% | 26.5% | 37.8% | 26.9% | 41.4% | 34.7% | 36% | 13.2% | 28.7% |
| Cc1ccc(Nc2nccc(N(C)c3ccc4c(C)n(C)nc4c3)n2)cc1S(N)(=O)=O [Pazopanib] + O=C(CCCCCCC(=O)Nc1ccccc1)NO [vorinostat] (first compound 2 µM, partner dose 0.4 µM) | 60.1% | 64.7% | 90% | 68.3% | 82.8% | 93.3% | 63.3% | 82.9% | 74.9% | 101% |
| O=C(/C=C/c1cccnc1)NCCCCC1CCN(C(=O)c2ccccc2)CC1 + CCCS(=O)(=O)Nc1ccc(F)c(C(=O)c2c[nH]c3ncc(Cl)cc23)c1F [PLX4720] (first compound 0.05 µM, partner dose 0.4 µM) | 8.82% | 20.7% | 60% | 46.8% | 62.7% | 46.2% | 19.1% | 85.7% | 106% | 43.4% |
